The supplement of paper PMC8728848
This is one part of the list.

Columns and labels:
Experiment in all cases: glycan array binding signal (z-score within array); higher = stronger binding
Details in all cases: glycan notation: IUPAC condensed, linker removed
Neu5Ac(a2-6)Gal(b1-4)Glc = target: Neu5Ac(a2-6)Gal(b1-4)Glc
In short: (§1)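 Arrays were curated from the Consortium for Functional Glycomics database, 3228 in total, and kept only where the protein sequence was available. Binding is expressed as a within-array Z-score. This score was averaged across arrays of the same protein sequence at different concentrations or buffers and across linkers, and negative values can be read as non-binding.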

[1] = target: Neu5Ac(a2-6)Gal(b1-4)GlcNAc
In short: as §1

[2] = target: Neu5Ac(a2-6)Gal(b1-4)GlcNAc(b1-2)Man
In short: as §1

[3] = target: Neu5Ac(a2-6)Gal(b1-4)GlcNAc(b1-2)Man(a1-3)Man(b1-4)GlcNAc(b1-4)GlcNAc
In short: as §1

[4] = target: Neu5Ac(a2-6)Gal(b1-4)GlcNAc(b1-2)Man(a1-3)[Gal(b1-4)GlcNAc(b1-2)Man(a1-6)]Man(b1-4)GlcNAc(b1-4)GlcNAc
In short: as §1

[5] = target: Neu5Ac(a2-6)Gal(b1-4)GlcNAc(b1-2)Man(a1-3)[GlcNAc(b1-2)Man(a1-6)]Man(b1-4)GlcNAc(b1-4)GlcNAc
In short: as §1

[6] = target: Neu5Ac(a2-6)Gal(b1-4)GlcNAc(b1-2)Man(a1-3)[GlcNAc(b1-4)][Neu5Ac(a2-6)Gal(b1-4)GlcNAc(b1-2)Man(a1-6)]Man(b1-4)GlcNAc(b1-4)GlcNAc
In short: as §1

[7] = target: Neu5Ac(a2-6)Gal(b1-4)GlcNAc(b1-2)Man(a1-3)[Man(a1-6)]Man(b1-4)GlcNAc(b1-4)GlcNAc
In short: as §1

[8] = target: Neu5Ac(a2-6)Gal(b1-4)GlcNAc(b1-2)Man(a1-3)[Neu5Ac(a2-3)Gal(b1-4)GlcNAc(b1-2)Man(a1-6)]Man(b1-4)GlcNAc(b1-4)GlcNAc
In short: as §1

[9] = target: Neu5Ac(a2-6)Gal(b1-4)GlcNAc(b1-2)Man(a1-3)[Neu5Ac(a2-6)Gal(b1-4)GlcNAc(b1-2)Man(a1-6)]Man(b1-4)GlcNAc(b1-4)GlcNAc
In short: as §1

[10] = target: Neu5Ac(a2-6)Gal(b1-4)GlcNAc(b1-2)Man(a1-3)[Neu5Ac(a2-6)Gal(b1-4)GlcNAc(b1-2)Man(a1-6)]Man(b1-4)GlcNAc(b1-4)[Fuc(a1-6)]GlcNAc
In short: as §1

[11] = target: Neu5Ac(a2-6)Gal(b1-4)GlcNAc(b1-2)Man(a1-6)Man(b1-4)GlcNAc(b1-4)GlcNAc
In short: as §1

[12] = target: Neu5Ac(a2-6)Gal(b1-4)GlcNAc(b1-2)Man(a1-6)[Gal(b1-4)GlcNAc(b1-2)Man(a1-3)]Man(b1-4)GlcNAc(b1-4)GlcNAc
In short: as §1

[13] = target: Neu5Ac(a2-6)Gal(b1-4)GlcNAc(b1-2)Man(a1-6)[GlcNAc(b1-2)Man(a1-3)]Man(b1-4)GlcNAc(b1-4)GlcNAc
In short: as §1

[14] = target: Neu5Ac(a2-6)Gal(b1-4)GlcNAc(b1-2)Man(a1-6)[Man(a1-3)]Man(b1-4)GlcNAc(b1-4)GlcNAc
In short: as §1

[15] = target: Neu5Ac(a2-6)Gal(b1-4)GlcNAc(b1-2)[Neu5Ac(a2-6)Gal(b1-4)GlcNAc(b1-4)]Man(a1-3)[GlcNAc(b1-4)][Neu5Ac(a2-6)Gal(b1-4)GlcNAc(b1-2)[Neu5Ac(a2-6)Gal(b1-4)GlcNAc(b1-6)]Man(a1-6)]Man(b1-4)GlcNAc(b1-4)GlcNAc
In short: as §1

[16] = target: Neu5Ac(a2-6)Gal(b1-4)GlcNAc(b1-2)[Neu5Ac(a2-6)Gal(b1-4)GlcNAc(b1-4)]Man(a1-3)[GlcNAc(b1-4)][Neu5Ac(a2-6)Gal(b1-4)GlcNAc(b1-4)Man(a1-6)]Man(b1-4)GlcNAc(b1-4)GlcNAc
In short: as §1

[17] = target: Neu5Ac(a2-6)Gal(b1-4)GlcNAc(b1-2)[Neu5Ac(a2-6)Gal(b1-4)GlcNAc(b1-6)]Man(a1-6)[Neu5Ac(a2-6)Gal(b1-4)GlcNAc(b1-2)Man(a1-3)][GlcNAc(b1-4)]Man(b1-4)GlcNAc(b1-4)GlcNAc
In short: as §1

[18] = target: Neu5Ac(a2-6)Gal(b1-4)GlcNAc(b1-3)Gal(b1-3)GlcNAc
In short: as §1

[19] = target: Neu5Ac(a2-6)Gal(b1-4)GlcNAc(b1-3)Gal(b1-4)GlcNAc
In short: as §1

[20] = target: Neu5Ac(a2-6)Gal(b1-4)GlcNAc(b1-3)Gal(b1-4)GlcNAc(b1-2)Man(a1-3)[Neu5Ac(a2-6)Gal(b1-4)GlcNAc(b1-3)Gal(b1-4)GlcNAc(b1-2)Man(a1-6)]GalNAc
In short: as §1

[21] = target: Neu5Ac(a2-6)Gal(b1-4)GlcNAc(b1-3)Gal(b1-4)GlcNAc(b1-3)Gal(b1-4)GlcNAc
In short: as §1

[22] = target: Neu5Ac(a2-6)Gal(b1-4)GlcNAc(b1-3)Gal(b1-4)GlcNAc(b1-3)Gal(b1-4)GlcNAc(b1-2)Man(a1-3)[Neu5Ac(a2-6)Gal(b1-4)GlcNAc(b1-3)Gal(b1-4)GlcNAc(b1-3)Gal(b1-4)GlcNAc(b1-2)Man(a1-6)]GalNAc
In short: as §1

[23] = target: Neu5Ac(a2-6)Gal(b1-4)GlcNAc(b1-3)Gal(b1-4)GlcNAc(b1-3)GalNAc
In short: as §1

[24] = target: Neu5Ac(a2-6)Gal(b1-4)GlcNAc(b1-3)Gal(b1-4)GlcNAc(b1-3)[Neu5Ac(a2-6)Gal(b1-4)GlcNAc(b1-3)Gal(b1-4)GlcNAc(b1-6)]GalNAc
In short: as §1

[25] = target: Neu5Ac(a2-6)Gal(b1-4)GlcNAc(b1-3)Gal(b1-4)GlcNAc(b1-6)[Gal(b1-3)]GalNAc
In short: as §1

[26] = target: Neu5Ac(a2-6)Gal(b1-4)GlcNAc(b1-3)Gal(b1-4)[Fuc(a1-3)]GlcNAc(b1-3)Gal(b1-4)[Fuc(a1-3)]GlcNAc
In short: as §1

[27] = target: Neu5Ac(a2-6)Gal(b1-4)GlcNAc(b1-3)GalNAc
In short: as §1

[28] = target: Neu5Ac(a2-6)Gal(b1-4)GlcNAc(b1-3)[Neu5Ac(a2-6)Gal(b1-4)GlcNAc(b1-6)]GalNAc
In short: as §1

[29] = target: Neu5Ac(a2-6)Gal(b1-4)GlcNAc(b1-6)GalNAc
In short: as §1

[30] = target: Neu5Ac(a2-6)Gal(b1-4)GlcNAc(b1-6)[Gal(b1-3)GlcNAc(b1-3)]Gal(b1-4)Glc
In short: as §1

[31] = target: Neu5Ac(a2-6)Gal(b1-4)GlcNAc(b1-6)[Gal(b1-3)]GalNAc
In short: as §1

[32] = target: Neu5Ac(a2-6)Gal(b1-4)GlcNAc6S
In short: as §1

Neu5Ac(a2-6)GalNAc = target: Neu5Ac(a2-6)GalNAc
In short: as §1

[33] = target: Neu5Ac(a2-6)GalNAc(b1-4)GlcNAc
In short: as §1

[34] = target: Neu5Ac(a2-6)GalNAc(b1-4)GlcNAc6S
In short: as §1

[35] = target: Neu5Ac(a2-6)GlcNAc(b1-4)GlcNAc
In short: as §1

[36] = target: Neu5Ac(a2-6)GlcNAc(b1-4)GlcNAc(b1-4)GlcNAc
In short: as §1

B1: CPA (Cicer arietinum) (protein)
chain: MAFSYLNLVLVTLTTLFFLQTTKVKSQKSVSFHITNFTISRPSITLQGTAEFLPNVLLLNDIEHPVFVVGRALYSKPITLWNNKTGKVASFVTSFTFDVQDLKKTVPGHGLVFFLAPSGSEIPFSSDGGNLGVVDGKNAFNRFVGVEFDNFVNSWDPKYSHVGINVNSLISTKTVKWNRVSGELVKVSIVYDSVSTTLTVIVTYKNGQISILSQLVDLKAVLPDTVNIGFSASTTLVSPRQLHNIHSWSFTSTFET
glycan array binding signal (z-score) (Neu5Ac(a2-6)Gal(b1-4)Glc): -0.327
glycan array binding signal (z-score) [1]: -0.477
glycan array binding signal (z-score) [2]: -0.555
glycan array binding signal (z-score) [3]: 0.138
glycan array binding signal (z-score) [4]: -0.192
glycan array binding signal (z-score) [5]: -0.478
glycan array binding signal (z-score) [6]: -0.417
glycan array binding signal (z-score) [7]: -0.546
glycan array binding signal (z-score) [8]: -0.601
glycan array binding signal (z-score) [9]: -0.503
glycan array binding signal (z-score) [10]: 0.327
glycan array binding signal (z-score) [11]: -0.505
glycan array binding signal (z-score) [12]: -0.257
glycan array binding signal (z-score) [13]: -0.498
glycan array binding signal (z-score) [14]: -0.538
glycan array binding signal (z-score) [15]: -0.605
glycan array binding signal (z-score) [16]: -0.591
glycan array binding signal (z-score) [17]: -0.405
glycan array binding signal (z-score) [18]: -0.331
glycan array binding signal (z-score) [19]: -0.648
glycan array binding signal (z-score) [20]: 0.208
glycan array binding signal (z-score) [21]: -0.108
glycan array binding signal (z-score) [22]: 2.33
glycan array binding signal (z-score) [23]: -0.593
glycan array binding signal (z-score) [24]: 3.34
glycan array binding signal (z-score) [25]: 0.746
glycan array binding signal (z-score) [26]: -0.338
glycan array binding signal (z-score) [27]: -0.512
glycan array binding signal (z-score) [28]: -0.588
glycan array binding signal (z-score) [29]: -0.136
glycan array binding signal (z-score) [30]: 0.044
glycan array binding signal (z-score) [31]: -0.326
glycan array binding signal (z-score) [32]: -0.453
glycan array binding signal (z-score) (Neu5Ac(a2-6)GalNAc): -0.383
glycan array binding signal (z-score) [33]: 1.26
glycan array binding signal (z-score) [34]: -0.452
glycan array binding signal (z-score) [35]: 0.309
glycan array binding signal (z-score) [36]: 2.61
